Measured values reported in publication PMC4336329 (PLoS ONE, 2015).
The whole screen tested about 310,000 compounds, of which about 2,200 (0.71%) showed an effect of 50% or more. The effect is printed as a negative number. The list shows a part of the results.

Target: human ether-à-go-go-related gene (hERG) potassium channel (human, UniProt Q12809)
Assay: primary screen, population patch clamp on CHO cells stably expressing hERG

Sequence of human ether-à-go-go-related gene (hERG) potassium channel (Q12809 whole entry, looked up): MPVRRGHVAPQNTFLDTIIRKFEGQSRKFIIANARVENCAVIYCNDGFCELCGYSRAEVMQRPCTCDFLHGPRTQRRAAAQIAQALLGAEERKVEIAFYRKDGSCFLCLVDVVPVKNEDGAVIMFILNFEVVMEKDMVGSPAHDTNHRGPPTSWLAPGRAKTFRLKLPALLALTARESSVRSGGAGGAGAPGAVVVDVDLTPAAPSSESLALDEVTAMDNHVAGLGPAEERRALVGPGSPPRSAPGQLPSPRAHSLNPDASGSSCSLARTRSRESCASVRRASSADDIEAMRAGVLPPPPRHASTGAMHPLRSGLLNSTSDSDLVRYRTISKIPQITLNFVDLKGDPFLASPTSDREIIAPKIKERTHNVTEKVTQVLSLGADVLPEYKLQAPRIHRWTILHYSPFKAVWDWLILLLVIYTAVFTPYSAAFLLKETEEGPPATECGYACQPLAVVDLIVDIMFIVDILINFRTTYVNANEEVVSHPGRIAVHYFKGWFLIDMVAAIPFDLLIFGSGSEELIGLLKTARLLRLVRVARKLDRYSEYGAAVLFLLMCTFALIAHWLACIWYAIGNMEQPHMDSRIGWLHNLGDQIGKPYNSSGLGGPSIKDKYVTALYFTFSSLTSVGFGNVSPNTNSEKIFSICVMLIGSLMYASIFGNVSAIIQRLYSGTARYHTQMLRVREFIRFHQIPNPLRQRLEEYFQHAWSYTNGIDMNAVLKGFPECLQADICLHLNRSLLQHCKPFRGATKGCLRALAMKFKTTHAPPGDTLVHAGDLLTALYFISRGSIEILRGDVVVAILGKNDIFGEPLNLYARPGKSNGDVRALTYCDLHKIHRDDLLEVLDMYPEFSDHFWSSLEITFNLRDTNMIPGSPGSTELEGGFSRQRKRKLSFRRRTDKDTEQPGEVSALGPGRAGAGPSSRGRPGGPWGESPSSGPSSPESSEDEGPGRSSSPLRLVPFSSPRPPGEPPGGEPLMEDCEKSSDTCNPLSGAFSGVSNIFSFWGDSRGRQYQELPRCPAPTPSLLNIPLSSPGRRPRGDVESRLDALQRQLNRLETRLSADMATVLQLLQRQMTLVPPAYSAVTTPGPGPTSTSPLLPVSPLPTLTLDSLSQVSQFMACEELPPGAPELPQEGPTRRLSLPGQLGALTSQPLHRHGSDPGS

Compound	hERG current change (%, negative = inhibition) at 1uM [%]
O=C(NCCc1ccccn1)C(F)(F)C(F)(F)C(F)(F)C(F)(F)C(F)(F)C(F)(F)C(F)(F)C(F)F	13
Cc1cc(C)n(CCCN2CCC(C(=O)Nc3cccc(-c4cccc(F)c4)c3)CC2)n1	-59.9
O=C(O)CC1(CC(=O)Nc2cc(C(F)(F)F)cc(C(F)(F)F)c2)CCCCC1	15.2
Cc1cc(NC(=O)c2ccc(N3C(=O)CCC3=O)cc2)no1	18.3
CC(NC(=O)Cc1ccc(F)cc1)c1ccccc1 (centres unmarked)	-10.8
Cc1cccc(NC(=O)Cc2cccs2)n1	4.93
O=C(COC(=O)c1ccc(CO)cc1)c1ccc(S(=O)(=O)N2CCCCC2)cc1	18
Cc1ccc(C(=O)NC(=S)N(C)C2CCCCC2)cc1	6.79
O=C(NCCc1c[nH]c2ccccc12)C(=O)NCC1OCCN1S(=O)(=O)c1cc(F)ccc1F (centres unmarked)	8.19
Cc1cc(C)c(OCC(=O)Nc2ccccn2)c([N+](=O)[O-])c1	4.53
Cc1cccc(C)c1N(CC(=O)Nc1cc(Cl)ccc1Oc1ccccc1)S(C)(=O)=O	6.49
COc1cc(C(=O)NCC2CCCO2)ccc1OCc1ccc(Cl)cc1Cl (centres unmarked)	8.85
Cn1c(CCN2CCCCC2)nc2cc(NC(=O)NC3CCCCC3)ccc21	7.55
CCN1CCN(c2ccc([N+](=O)[O-])cc2S(=O)(=O)N2CCOCC2)CC1	-5.9
Cc1cnc(C(=O)NNC(=O)c2ccc(Br)cc2)cn1	2.55
CC(C)c1ccc(NC(=S)NNC(=O)c2cccnc2)cc1	14.3
CCOC(=O)Cn1nc(C)n(-c2ccc(Br)cc2)c1=O	1.13
CS(=O)(=O)N(CC(O)Cn1c2ccccc2c2ccccc21)c1cccc2ccccc12 (centres unmarked)	4.78
Cc1ccc(S(=O)(=O)N2CCOCC2)cc1C(=O)OCC(=O)NCc1ccc2c(c1)OCO2	-12.8
COc1cccc(NC(=O)c2cc3ccccc3cc2OC)c1	16.5
COc1ccc(N2C(=O)C3C4C=CC(c5ccccc5)(C3C2=O)C2C(=O)N(c3ccc(OC)cc3)C(=O)C42)cc1 (centres unmarked)	8.21
CCN(CC)CCc1nc(-c2ccccc2)no1.O=C(O)CC(O)(CC(=O)O)C(=O)O	1.1
COC(=O)[C@]1(S(=O)(=O)c2ccccc2)C[C@@H]2ON=C(c3ccc(OC)cc3)[C@@H]2C1	13.7
